Results from paper PMC4242493.
The other results are listed elsewhere or left out. The list includes weakly bound sequences.

What follows are sequences tested against MaxL homodimer (UniProt P61244) (assay: universal protein-binding microarray (PBM)). Conditions: PBS-based mixture, 10 nM His-tagged protein dimer, 2% milk, 200 ng/uL BSA, 50 ng/uL salmon testes DNA, 0.02% TX-100; detection with Alexa 488 anti-His …; high values mean tight binding; most listed sequences are background and not binding sites; double strand, one strand shown.
Sequence of UniProt P61244 (P61244 whole entry): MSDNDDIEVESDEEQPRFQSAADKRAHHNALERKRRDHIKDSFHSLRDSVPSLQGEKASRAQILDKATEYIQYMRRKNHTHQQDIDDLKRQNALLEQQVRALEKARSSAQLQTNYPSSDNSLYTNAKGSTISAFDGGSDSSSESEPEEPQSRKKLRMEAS

Sequence	binding signal (normalized occupancy)
GCCATACA	0.0813
GAAGACGA	0.0709
CACTGCAG	0.0735
AATTACCC	0.0792
TGTAATAA	0.0791
AGGGACTA	0.0805
CAGAAGGG	0.0737
AAAATGCA	0.0766
AAGGGACA	0.0766
AAGGTCAC	0.0771
GTCCATTA	0.0766
ACGCGAGA	0.0802
CAGAGACG	0.0739
TCTTACCA	0.0777
ATTGCAAG	0.0752
TGCAAGCA	0.0718
GGGTAAAC	0.0784
AAATTTCG	0.0663
CAGGTGAG	0.0881
AACTATAC	0.0834
ACATCATC	0.0854
ATTAGTCG	0.077
CAGTGTAG	0.0731
GCACACAC	0.0907
ACACAGAT	0.079

Sequence	binding signal (normalized occupancy)
AGAAAGAT	0.0767
GGGAAGAA	0.0707
TAGGATGA	0.0742
CAGGCGGC	0.0721
GCTTCAGA	0.0698
ATGCCGGA	0.0718
AGTACTTG	0.0732
ACCCACTC	0.0722
CACCATAC	0.0807
AATCACCA	0.077
ACAGTACG	0.0729
AGGTTATC	0.078
AAGGTTTC	0.0742
CTATTTTC	0.0775
AGACAATC	0.0771
CTACTTAA	0.0713
GATTGGAA	0.0707
AGCTATCC	0.0729
GGCCGAGA	0.0674
GTCGAGCA	0.0704
ACGCCGAT	0.0771
AGTCCTGC	0.0718
ACGGGCAG	0.0759
AAGGATCT	0.0771
GCACAAAC	0.0731

Sequence	binding signal (normalized occupancy)
GACAAAAA	0.074
CGAAAAAG	0.0732
GGACGTTA	0.0789
CCGGGAGG	0.0699
AATCGGAC	0.0716
CTGGCTAC	0.0703
CTTTATCC	0.071
CGCAAAGC	0.0658
ACTGTGAG	0.0805
AGTTGGTC	0.0747
ACGGTTAT	0.0819
GGGTAACA	0.0825
AACAGGGG	0.0829
AGAGCCCA	0.0706
ACGGGTAA	0.0784
ACGGCCCA	0.0728
ATGCCTCC	0.0785
CTGGTACA	0.0794
CCCCGCAA	0.0739
AATGAACA	0.0796
TGAGCGAA	0.0709
ACGCGCAA	0.0715
ATGAGGGC	0.0956
CAACCTGC	0.076
AAGTCCTG	0.0704

Sequence	binding signal (normalized occupancy)
AAATTGAC	0.0744
AGCAGCGA	0.0704
GGCAACTA	0.072
GTGATTCA	0.0783
CTTGCATC	0.072
CTTCTTTA	0.075
GAAGGCTC	0.0674
CTCTCTAC	0.0734
CGTATGCA	0.0828
ACCTTGGC	0.0701
CTTATGAC	0.0773
TTACCAAA	0.0699
AAGCTGGG	0.0713
ATCCATAG	0.0811
ACCTTACC	0.0707
CGGCACCG	0.0648
CACGATGA	0.0862
ATTGCATA	0.0797
AGACCTAA	0.0738
ACCTCTAT	0.0776
GAGGAGTA	0.0781
AATACGGG	0.0747
ACTGGCCA	0.0733
ATGTTGTC	0.0895
AGATACAG	0.0792

Sequence	binding signal (normalized occupancy)
CGCGTGGA	0.147
GGCGACCA	0.0707
AAATATCT	0.074
ATAAGAGG	0.073
ACAGACCC	0.0739
CGCCGGCG	0.0622
CTGTAACA	0.0851
GGGGCCAA	0.072
ATAAGCGC	0.0758
ACAATCTA	0.0768
AATTGAGG	0.0713
ATAAAGAT	0.0762
AGAACTGA	0.0716
CTCGAGGA	0.0818
ACCCAAGG	0.0705
AAATCAGC	0.075
CGTCGTAA	0.0759
AGGTCGCG	0.0706
TAACAATA	0.0763
ACAGAGGC	0.0742
AGTATGCA	0.0786
GTTCCAGA	0.0714
CACACCTG	0.0932
TAGTCGCA	0.0765
CGGCCGAG	0.0689

Sequence	binding signal (normalized occupancy)
CCCGCCGA	0.0663
GCATACTA	0.0759
CGCCACCG	0.0733
TATAACAA	0.0788
CCACCACC	0.0813
CCTGTGAG	0.0762
CGATAGGC	0.0779
ATTTAGTG	0.0751
ACCCAATC	0.0754
AACCATTA	0.0784
GCCATTAC	0.0743
CAAAGGTC	0.0669
GCGAACGC	0.0739
ACGAACGA	0.0771
GCAGCCGC	0.0651
CGAATACA	0.0824
CCTTTTGA	0.0749
ACCTTATA	0.0748
AAAGCAGT	0.0719
CCACACGC	0.0953
AAGAGCGG	0.0675
CAGATGCC	0.0772
ATTACCTC	0.0797
CGAAGCCA	0.0704
CGTTGCGC	0.0693

Sequence	binding signal (normalized occupancy)
ATCTCCGG	0.0698
ATATGTGC	0.0897
GGACTGCA	0.0692
AGGAAAGG	0.0743
AAAGTCTA	0.0703
AATAAGGG	0.0746
AATCTGTG	0.0758
CACTGCCG	0.0673
CAGTATAA	0.0746
GCGGACCC	0.0723
AACGGACT	0.0712
ATTAATTG	0.0748
AGGGCCAT	0.0744
AGGAACCT	0.0728
ATAAGTAC	0.0776
GTAGCGCA	0.0713
CAATTAAC	0.0756
CAAGTGGA	0.0784
CAGCAGAA	0.0668
CGGAACGC	0.0739
ATCCGGAT	0.0748
TAGTGGAA	0.073
CTTAATAA	0.0703
ACGGAGAC	0.074
GAAGAGAA	0.0751

Sequence	binding signal (normalized occupancy)
GCCTCGCC	0.0721
CACTCCCC	0.0834
CAGTATAG	0.0734
AGATCGTA	0.0753
ACCTGAAA	0.0726
AAAACCAT	0.0801
TCATCAGA	0.0811
AGCCGAGC	0.0645
CGGCACCA	0.0775
ACCTATAT	0.0805
TATCGTAA	0.079
GACCCTGC	0.0706
CACGAGCG	0.082
ATCCCAGA	0.0711
ACGCTTAG	0.0757
AGCGGCTA	0.0685
ACTCGATG	0.0758
CGTCGGCC	0.0672
GTGTAGCA	0.0826
TATGCGGA	0.0786
TACTTGAA	0.079
ATCGGGGC	0.0732
ACTAAAGG	0.0687
CCGCGCGC	0.0828
CTCAAGTA	0.0761

Sequence	binding signal (normalized occupancy)
CTGGCCAC	0.0837
AGTGAGGA	0.0746
AATGGGTA	0.0788
AGGATGAA	0.072
AGTTGACC	0.0726
CATAATAG	0.0832
CAAGCACC	0.0723
ATGCGCCG	0.0838
ATGTTTTA	0.0906
ATCCTGTG	0.0775
AAAGCGAC	0.0673
CATCAAGG	0.0771
GGACACTA	0.0717
GGCGCGTA	0.0751
ACTCAGAA	0.0698
GTGGATCA	0.0818
TCTCGTAA	0.0762
CCCCCTAA	0.0764
ATGAACCC	0.0746
GAGCTTTA	0.0672
CAGCAGCG	0.0702
CAACGATG	0.0773
CTCAGCTC	0.0665
CGAATCCG	0.0702
CCGTCATA	0.0781

Sequence	binding signal (normalized occupancy)
CTCATTTC	0.0748
AGAATCGA	0.0701
CCTAAGTA	0.0775
ATGACGGG	0.0805
GGCGTCAC	0.0774
CACCCTAA	0.0817
GCTTTGGA	0.0788
ACATTTGC	0.0828
AGGCTGCA	0.0727
ACGCCAGC	0.0724
AAAGTGCA	0.0789
CATGTGAC	0.168
CAAACAAA	0.0751
CAATTTTA	0.0717
ACAAGTGG	0.0844
ACAAGTGT	0.0777
ACCGGTCT	0.0723
AATCACTC	0.0791
ATTTGTAG	0.0745
ACGGCGGG	0.0756
CACCAGTG	0.0724
ATCGAGAG	0.0707
AGATGGAC	0.0751
GCCAGCGA	0.0667
ACGGAATC	0.0794

Sequence	binding signal (normalized occupancy)
CGTCCGTA	0.071
CCCCGGCA	0.0802
CGGGGACA	0.0771
ACGCGCTC	0.0755
ATCGGAAA	0.0712
GGCGACCC	0.0706
CACGTACA	0.0882
CTTAACTC	0.072
GATGGGCA	0.0781
CATACACC	0.0901
AAGGTAAG	0.0727
TTCAGAAA	0.0739
AGCTCCCC	0.073
GTACAGTA	0.077
ACTGGCCG	0.0737
ACGAAAGT	0.0732
ATGTCTCC	0.0807
GCAACTGC	0.069
AGCGGGCC	0.0682
AGTCTTCG	0.0648
GACTAGGC	0.0703
CTCGCTGA	0.0709
GTGTGTCA	0.0887
CCAGGACA	0.0774
AACGCGCC	0.0697

Sequence	binding signal (normalized occupancy)
AGAGGAAC	0.0728
CGCAGGTA	0.0729
CCCGGCTC	0.0643
ACCTAGCA	0.0776
GAGGACGC	0.0668
ACCTGTCT	0.0791
CGTGGGCA	0.0842
ACTGCTCT	0.0716
AATGTTAT	0.0802
AACCTCCA	0.0747
ATGTGAAG	0.0891
ACTCTGCC	0.0725
GTGTCGGA	0.0773
GCATAGAA	0.08
GACTGAGA	0.0692
GAAATCTA	0.0763
CAGCAAAA	0.0739
AGCATTTA	0.0741
ATAACGAA	0.0764
AGATCTTG	0.0764
GAACTGTC	0.0725
AGGTCTGC	0.0711
ACTTTTTA	0.0717
GCTTCATA	0.0763
ATCTGAGG	0.0779

Sequence	binding signal (normalized occupancy)
CTGACCCA	0.077
ACCAAAAC	0.0688
AAGCTAAG	0.0751
CTAACACC	0.0747
CACCTTCC	0.0759
CAGCGCGA	0.0735
CGAGGCAA	0.0752
GGTGTGAA	0.0819
AATCGTAG	0.0762
ACCCTACG	0.0791
CTTAGGTA	0.0737
ATACAATG	0.0826
AATGCGGT	0.0825
CGTCTCCC	0.0717
TCTTATAA	0.0804
AATAACGG	0.0747
CATGGTGC	0.0928
TCGTTTCA	0.074
AAAATATT	0.0814
AGTCGTCG	0.0761
AGCTCCCG	0.0693
CAAACATA	0.0873
AGCCATAA	0.0764
ATTCTTCC	0.0754
CTTGAAAG	0.0735

Sequence	binding signal (normalized occupancy)
GCTTGATA	0.0723
CCATGACC	0.0831
CTAGACTC	0.0763
AATTGAAC	0.0797
GGACTAGA	0.0729
AAAAGAGA	0.073
GTCAGTTA	0.077
CCTATAGG	0.0669
AACCTTCA	0.0729
CTTGTAAC	0.0775
CGTCGACC	0.0721
AGTTCTTA	0.0713
GCGAGGCC	0.0712
GGGCTGAC	0.076
AGACTTTA	0.0745
GATCACAC	0.0863
TATGCTGA	0.0773
CGGTGGCC	0.0697
CTTTCTCA	0.0813
